In the supplement of paper PMC7580552:
Counter-ions that a name gives are not always drawn. The list shows a part of the results. Single values are uncertain, as repeats are few or missing.

Each compound was assayed on Escherichia coli W3110 (assay: planktonic growth (OD600) relative to untreated control; higher = more growth). Details: 10 µM; 20-24 h; 30 °C; TB.
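Further: stationary (unshaken) cultures in 96-well plates, started at OD600 0.05 from mid-exponential cells, with compounds supplied from DMSO stocks.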

| Compound | planktonic growth [%] |
| --- | --- |
| CN(C)CCN(Cc1ccc(Cl)cc1)c1ccccn1 [Chloropyramine hydrochloride] | 110 |
| NS(=O)(=O)Cc1noc2ccccc12 [Zonisamide] | 93 |
| Cc1c(NC(C)C)c(=O)n(-c2ccccc2)n1C [Isopyrin hydrochloride] | 108 |
| NCCc1cc[nH]n1 [Betazole hydrochloride] | 100 |
| CCCNC(C)C(=O)Nc1c(C)csc1C(=O)OC (stereo not given) [Articaine hydrochloride] | 98 |
| COc1cccc(N(C)C(=S)Oc2ccc3c(c2)CCCC3)n1 [Liranaftate] | 108 |
| NC(=O)N1c2ccccc2CC(=O)c2ccccc21 [Oxcarbazepine] | 102 |
| CC(C)Cn1cnc2c(N)nc3ccccc3c21 [Imiquimod] | 93 |
| CC[N+](CC)(CC(=O)Nc1c(C)cccc1C)Cc1ccccc1 [Denatonium benzoate] | 111 |
| COc1cc(NS(=O)(=O)c2ccc(N)cc2)nc(OC)n1 [Sulfadimethoxine] | 71 |
| CC1(C)O[C@@H]2[C@@H](CO[C@@]3(COS(N)(=O)=O)OC(C)(C)O[C@@H]23)O1 [Topiramate] | 102 |
| CN(C)c1cc(NC(=O)CNC(C)(C)C)c(O)c2c1C[C@H]1C[C@H]3[C@H](N(C)C)C(O)=C(C(N)=O)C(=O)[C@@]3(O)C(O)=C1C2=O [Tigecycline] | 117 |
| Cc1cccc(Nc2ccncc2S(=O)(=O)NC(=O)NC(C)C)c1 [Torsemide] | 95 |
| CCCCCCCCNC(C)C(O)c1ccc(SC(C)C)cc1 (stereo not given) [Suloctidil] | 93 |
| CC(=O)CC(c1ccc([N+](=O)[O-])cc1)c1c(O)c2ccccc2oc1=O (stereo not given) [Acenocoumarol] | 91 |
| S=c1[nH]cnc2nc[nH]c12 [Mercaptopurine] | 86 |
| CN(Cc1ccc(C(C)(C)C)cc1)Cc1cccc2ccccc12 [Butenafine Hydrochloride] | 115 |
| CC(C)NC(=N)NC(=N)Nc1ccc(Cl)cc1 [Proguanil hydrochloride] | 97 |
| Cc1nnc(SCC2=C(C(=O)O)N3C(=O)[C@@H](NC(=O)Cn4cnnn4)[C@H]3SC2)s1 [Cefazolin sodium salt] | 20 |
| O=c1[nH]c(=O)n([C@H]2C[C@H](O)[C@@H](CO)O2)cc1C(F)(F)F [Trifluridine] | 93 |
| COc1ccc2c3c1O[C@H]1C[C@@H](O)C=C[C@@]31CCN(C)C2 [Galanthamine hydrobromide] | 94 |
| CC(C)(Sc1cc(C(C)(C)C)c(O)c(C(C)(C)C)c1)Sc1cc(C(C)(C)C)c(O)c(C(C)(C)C)c1 [Probucol] | 105 |
| Nc1c(Br)cc(Br)cc1CN[C@H]1CC[C@H](O)CC1 [Ambroxol hydrochloride] | 103 |
| Cn1ccnc1S [Methimazole] | 90 |
| COc1cc(OC)c(C(=O)CCCN2CCCC2)c(OC)c1 [Buflomedil hydrochloride] | 98 |

| Compound | planktonic growth [%] |
| --- | --- |
| N#CC(c1ccc(Cl)cc1)c1c(Cl)cc(-n2ncc(=O)[nH]c2=O)cc1Cl (stereo not given) [Diclazuril] | 94 |
| COc1ccc2c(c1)N(C[C@H](C)CN(C)C)c1ccccc1S2 [Methotrimeprazine maleat salt] | 96 |
| CCCN(CCC)C(=O)C(CCC(=O)O)NC(=O)c1ccccc1 (stereo not given) [Proglumide] | 105 |
| CCN1C(=O)NC(c2ccccc2)C1=O (stereo not given) [Ethotoin] | 93 |
| CN1CCC(=C2c3ccccc3CC(=O)c3sccc32)CC1 [Ketotifen fumarate] | 94 |
| CN1CCCC(CC2c3ccccc3Sc3ccccc32)C1 (stereo not given) [Metixene hydrochloride] | 95 |
| COc1ccccc1N1CCN(CC(O)COc2cccc3ccccc23)CC1 (stereo not given) [Naftopidil dihydrochloride] | 99 |
| Cn1c(=O)c2c(ncn2CC(=O)O)n(C)c1=O [Acefylline] | 97 |
| CO[C@H]1C[C@H](O[C@H]2[C@H](C)[C@@H](O[C@@H]3O[C@H](C)C[C@H](N(C)C)[C@H]3OC(C)=O)[C@@H](C)C[C@@]3(CO3)C(=O)[C@H](C)[C@@H](OC(C)=O)[C@@H](C)[C@@H](C)OC(=O)[C@@H]2C)O[C@@H](C)[C@@H]1OC(C)=O [Troleandomycin] | 98 |
| Cc1cc(C(=O)NNCc2ccccc2)no1 [Isocarboxazid] | 96 |
| CC(C)(Oc1ccc(Cl)cc1)C(=O)O [Clofibric acid] | 90 |
| CN(C)CC/C=C1\c2ccccc2CSc2ccccc21 [Dosulepin hydrochloride] | 104 |
| CC1CCc2c(N3CCC(O)CC3)c(F)cc3c(=O)c(C(=O)O)cn1c23 (stereo not given) [Nadifloxacin] | 35 |
| Cc1ccc(-c2ncc(Cl)cc2-c2ccc(S(C)(=O)=O)cc2)cn1 [Etoricoxib] | 102 |
| NC12CC3CC(CC(C3)C1)C2 [Adamantamine fumarate] | 103 |
| Cc1cc(=O)n(-c2ccccc2)n1C [Antipyrine] | 97 |
| Clc1ccc(COC(Cn2ccnc2)c2ccc(Cl)cc2Cl)c(Cl)c1 (stereo not given) [Miconazole] | 79 |
| CN1CCN(C2=Nc3cc(Cl)ccc3Nc3ccccc32)CC1 [Clozapine] | 96 |
| C[C@@H]1NC(=O)NC1=O [Methylhydantoin-5-(L)] | 95 |
| CCOC(=O)C(C)(C)Oc1ccc(Cl)cc1 [Clofibrate] | 110 |
| CO[C@@]1(NC(=O)CSCC#N)C(=O)N2C(C(=O)O)=C(CSc3nnnn3C)CS[C@@H]21 [Cefmetazole sodium salt] | 18 |
| C[C@@H]1[C@H](O)[C@@H](C)/C=C/C=C/C=C/C=C/C=C/C=C/C=C/[C@H](O[C@@H]2O[C@H](C)[C@@H](O)[C@H](N)[C@@H]2O)C[C@@H]2O[C@](O)(C[C@@H](O)C[C@@H](O)[C@H](O)CC[C@@H](O)C[C@@H](O)CC(=O)O[C@H]1C)C[C@H](O)[C@H]2C(=O)O [Amphotericin B] | 118 |
| CCC(Cc1c(I)cc(I)c(N)c1I)C(=O)O (stereo not given) [Iopanoic acid] | 93 |
| CCC(NC(C)C)C(O)c1ccc(O)c(O)c1 (stereo not given) [Isoetharine mesylate salt] | 94 |
| CN1CCc2cccc3c2[C@H]1Cc1ccc(O)c(O)c1-3 [R(-) Apomorphine hydrochloride hemihydrate] | 28 |
